In the supplement of paper PMC11417369:
± gives the standard deviation of the averaged measurements. This is one part of the list.

What follows are sequences tested on PfAP2-EXP AP2 domain (GST-tagged) (assay: gcPBM binding intensity (ln(normalized median fluorescence intensity)); higher = stronger DNA binding).
Summary of the method: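 The binding buffer was 1× PBS containing 1% milk, 0.2 mg/ml BSA, 0.5% salmon testes DNA and 0.03% Triton X-100. In it, GST-tagged P. falciparum DNA-binding domains expressed in E. coli were applied for 1 h to an Agilent 4 × 180k array of primer-extended double-stranded 36-bp intergenic genomic probes plus negative controls. Binding intensity, read with Alexa488 anti-GST antibody and a 488 nm scan, is the highest Masliner-normalised natural-log median intensity across replicate spots of either probe orientation.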

Row | Sequence | gcPBM binding intensity (ln)
1 | TATGTAGATAAATAAGCACACACCAAACATATAAAA [CACACA_site1182] | 8.95 ± 0.55
2 | ATCAGTCGAGATGACAGTACACAGTAGCCAGGAAAT [XGTACX_site4932] | 8.93 ± 0.5
3 | AAATGTTGAAATGATACACACATATAAATATAAATA [CACACA_site7229] | 8.53 ± 0.42
4 | AATAATAAACACAATCAAATAAAATATGAAATATAA [GTGCAC_negctrl_site307] | 8.39 ± 0.35
5 | CCCTGAGCACTTTCGTGTACTAATAGTAACAATAAT [XGTACX_site1418] | 9.05 ± 0.54
6 | AAACAAATGTATATGTGTACTTATTTTTTTGTATGT [XGTACX_site7134] | 8.365 ± 0.064
7 | TATTTATTAAAACACACACACACACCGACAAAATAA [CACACA_site4293] | 8.9 ± 0.54
8 | TTAATTTGTAAATAATGTACATATAAATGGAAAGTA [XGTACX_site2743] | 9.12 ± 0.38
9 | TAATAAAACATATATACACACATTATGTATACATAT [CACACA_site1703] | 8.31 ± 0.38
10 | TTAATATTTACAAAATGTACAGATTATTTATTGTTG [XGTACX_site1270] | 8.29 ± 0.33
11 | AATAATTATAATAAGGGTACGTATCTCACAGGAAAA [XGTACX_site4187] | 8.9 ± 0.35
12 | TTTTTTAATATTTATACATGCATGCCGATTACTATA [TGCATGCA_site26] | 9.45 ± 0.2
13 | AAATATGTCAAATATACACACATAATAACTAGAATA [CACACA_site7151] | 8.56 ± 0.48
14 | ACAATACAAATATATACACACATACATACATACATA [CACACA_site5699] | 8.71 ± 0.39
15 | ATTATATATGTATGGTGTACTAAGAATATTTTTTTA [XGTACX_site1950] | 8.47 ± 0.26
16 | AACACATACAAACACACACACAAAAAAAAAAAAAAA [CACACA_site393] | 8.14 ± 0.36
17 | TATTGAAAAAATAAAAGTACAAACTCTTATAATATG [XGTACX_site8196] | 8.3 ± 0.33
18 | CCCGAACAAACAAATAAACACACAAAAAAAAATATA [CACACA_site8540] | 8.69 ± 0.74
19 | ATTCAATATAAATACACACACACTTTTAATAATTAA [CACACA_site5963] | 8.4 ± 0.54

Row | Sequence | gcPBM binding intensity (ln)
20 | CTAAACAAAAAATAATGTACACATACATAAAAAATA [XGTACX_site1808] | 8.51 ± 0.28
21 | TTATTTTTCTAAAAAGCATGCAAATAAAGATATGAA [TGCATGCA_site1032] | 9.52 ± 0.33
22 | TTGTTTGGTTATAATTGTACGCATGTAATTACATAT [XGTACX_site4972] | 9.1 ± 0.31
23 | ACATGGTGATAATACTGTACAAAAATAAATAAATAC [XGTACX_site897] | 8.97 ± 0.45
24 | AAAAAAACGATCGATCGTACTTATATTTACACATTC [XGTACX_site2883] | 8.49 ± 0.35
25 | ACATTCAATAAACGTCGTACACTTTCCTTTTTATGA [XGTACX_site3274] | 8.9 ± 0.47
26 | TTTTATAGTCTTATGGGTACAAAATATTAACCCACG [XGTACX_site1131] | 8.21 ± 0.2
27 | ATATATATTTTATTATGTACTTACTTCTTTTCTTAA [XGTACX_site6163] | 8.68 ± 0.4
28 | TATATATATTTATACACACACATATATTTATATATT [CACACA_site484] | 8.52 ± 0.25
29 | ATTCACTGGTATGCATGAAAAAAAATATTATTATAA [CACACA_negctrl_site702] | 8.46 ± 0.4
30 | TGAATACTTATGTTCGCACACATGCAAATTAAAAAA [CACACA_site4048] | 8.62 ± 0.22
31 | ATTTTGATAACCGTACGTACATATATATATATATAT [XGTACX_site6605] | 10.3 ± 0.35
32 | TTATGTGTATACTAAGAACACACAAGTTACTTGGTG [CACACA_site8467] | 8.28 ± 0.4
33 | TCTCCTTGTTCCTTTTTTTTAAAAAAAAACATTAAA [CACACA_negctrl_site679] | 8.9 ± 0.4
34 | ATAAAATGTATATGAATGCACTTGAAGTTTTTTTTT | 8.19 ± 0.26
35 | TTAGTGTATTAATTCTCACACACTAAGAAAAAAAAA [CACACA_site3878] | 8.26 ± 0.4
36 | ATAAATCCATGGGTAGTGCGCATTTTTTTTTTTTTT [GTGCAC_site9732] | 8.82 ± 0.38
37 | TATATGTGACATGAATGTACCCAAATTATATAAGAA [XGTACX_site3937] | 8.48 ± 0.32
38 | ATTTAATATATTTATTGTACATATAAAATAAAAGAA [XGTACX_site2413] | 8.55 ± 0.26

Row | Sequence | gcPBM binding intensity (ln)
39 | CATAGGAACATAAGTTGTACGCTATACATACAACAT [XGTACX_site1054] | 8.71 ± 0.33
40 | TATTCTTACACGTTTGCACACTAAAATATATATATA [CACACA_site435] | 9.54 ± 0.085
41 | TAATAATAATACCAGCGTACATTTTTCTTTCCTACG [XGTACX_site4056] | 8.76 ± 0.58
42 | TATTTTTTCTTAAACACACACATATATATATATAAT [CACACA_site5567] | 8.56 ± 0.39
43 | TTCCTTAATCAATATTGTACTTTTTATAAATTTAGT [XGTACX_site3678] | 8.78 ± 0.38
44 | TGAAAATTAATAAAAAGTACATAGTCAGATTTGTGA [XGTACX_site2450] | 8.57 ± 0.31
45 | TCTGTGTTTTTGGGTACACACAAATAGCTTGTATAT [CACACA_site4002] | 8.72 ± 0.19
46 | ATATATATATATAGGGGTACTTAAATTTTACTAACC [XGTACX_site1832] | 10 ± 0.38
47 | ATTTTATTTATATACACACACATATATATATTATAT [CACACA_site822] | 8.77 ± 0.44
48 | TTGTATCTTCATTTTATCAGAAAAAAAAAAAAAAAT [CACACA_negctrl_site775] | 8.09 ± 0.48
49 | AAAGGGTTACAAGAGGAACACACAAAAAAATAAATA [CACACA_site8406] | 8.81 ± 0.47
50 | AATAAATAAATAAATTAATATATATATATATATAGA [CACACA_negctrl_site1661] | 8.24 ± 0.29
51 | AGCACCCACCAACACACACACACACCCACCCACCGA [CACACA_site368] | 8.63 ± 0.61
52 | TTTTGCGAAAAAAGGTGTACTGTAAATATATTGAGG [XGTACX_site8941] | 8.79 ± 0.28
53 | TACGTAAATTTTAATACACACTATAGGATATTCTGC [CACACA_site5418] | 8.32 ± 0.49
54 | TTTTTTTTTAATTACATAAAATAAAAATATTTCTAT [CACACA_negctrl_site584] | 8.03 ± 0.47
55 | TTAATATGTTTAACCATTTTACATAAATTGATTTGT [CACACA_negctrl_site1100] | 8.39 ± 0.44
56 | TTTTTTTTGATTTGTTTGCACTTATTTCCACAATAA | 8.91 ± 0.41
57 | AAATAAATAAATATACGTACATATATATAATATATA [XGTACX_site5124] | 8.52 ± 0.15
